Reference: US9457029B2, “Treatment of genotyped diabetic patients with DPP-IV inhibitors such as linagliptin” (Boehringer Ingelheim International GmbH, priority 2009, dated 2016)

Columns and labels:
[1] = system: TGF-β1, T1MP-1 and collagen (Col3alpha1); assay: mRNA expression of profibrotic factors in the heart of uremic rats; type: in vivo, rat
From the text: Characteristic cardiomyopathy with intestinal expansion and fibrosis develops often in uremia. Thus, these antifibrotic properties of DPP-4 inhibitors may be used for the treatment of cardiac and renal injury, uremic heart, cardiac fibrosis and/or cardiomyopathy with intestinal expansion and fibrosis associated with uremia in patients with type 2 diabetes. The antifibrotic action of linagliptin can be an additional benefit for patients with chronic kidney and/or heart diseases that often accompany type 2 diabetes.

[2] = system: model of diet-induced obesity; assay: Diet-induced obesity model, 4 weeks therapy: OGTT and liver lipid content (MRS); type: in vivo, rodent; conditions: 3 and 30 mg/kg/day
From the text: […]. Liver lipid content is detected by magnetic resonance spectroscopy (MRS) in vivo and by analysis of liver triglycerides ex vivo. […]. […] Changes in liver fat content are visible as early as 2 weeks on treatment. The correlation between liver lipid content as measured by MRS and hepatic triglyceride levels as measured ex vivo is r2=0.565 (P<0.0001).

ob/ob mice [3] = assay: Wound healing and inflammatory markers in wounded skin of ob/ob mice; type: in vivo
Protocol: Impaired wound healing is a major complication of diabetes mellitus. […] The impact of linagliptin on inflammatory markers in wounded skin is examined and a rationale for the beneficial action of linagliptin on wound healing is provided:
Therefore, the expression of DPP-4 in the skin of diabetic and non-diabetic animals is assessed. Immunohisto-chemistry (IHC) and immunoblots reveal a strong expression of DPP-4 in skin from healthy and diabetic (ob/ob) mice and keratinocytes as the major cellular source of the enzyme. In line, the localization of DPP-4 protein in the skin nicely correlates with whole body autoradiography obtained after [3H]-labelled linagliptin treatment. […] In contrast, in acute wounds of diabetic mice any DPP-4 expression can not be observed. DPP-4 protein, however, is expressed in the late phase of wound repair. The inverse regulation of DPP-4 protein in diabetic versus non-diabetic skin provides a functional basis of the positive action of linagliptin in wound healing processes. Thus, improvement of the wound healing process mediated by a suitable DPP-4 inhibitor, such as linagliptin, depends on the compensation (inhibition) of a dysregulated DPP-4 in diabetic wounds rather than on the anti-glycemic or immunomodulatory effects thereof. Thus, a DPP-4 inhibitor being suitable for improving wound healing is such a DPP-4 inhibitor which can effectively bind to DPP-4 in the skin, e.g. to dysregulated DPP-4 in diabetic wounds, preferably in its therapeutic dose level.

[4] = system: type 2 diabetes patients of TCF7L2 rs7903146 CC, CT or TT genotype; assay: Association study of TCF7L2 SNP rs7903146 genotype and HbA1c response, pooled data over four studies (ANCOVA); type: in vivo, human; conditions: linagliptin or combination treatment, 24 weeks, p value=0.0192
From the text: To assess the homogeneity of the treatment effect on the change from baseline of HbA1c after 24 weeks in the genotype subgroups defined by TCF7L2 SNP […] genotypes an analysis of covariance (ANCOVA) model including the treatment interaction with the covariate genotype is applied for pooled data over four studies. The statistical model includes 'Treatment', 'Genotype', 'Study', 'Wash-Out-Period for prior oral antidiabetic drugs (yes/no)', 'Race', as well as the interaction term 'Treatment*Genotype' as fixed effects and 'HbA1c baseline' as a linear covariate. […] Model based pair-wise comparisons between wild-type homozygous (genotype CC) and heterozygous (genotype CT) or rare homozygous (genotype TT) individuals on linagliptin or combination treatment (linagliptin+pioglitazone, linagliptin+metformin, linagliptin+metformin+a sulphonylurea) are performed. […] Results are shown as point estimates and 95% confidence intervals for the mean change in HbA1c from baseline [%] after 24 weeks as estimated by ANCOVA models. The results are given for the whole patient population of the studies (full analysis set, FAS), for the subpopulation for which genetic analyses are performed (full analysis set for pharmacogenetic analyses, FASG), as well as for the subgroups defined by genotype (CC, CT, TT) of this subpopulation. […]

[5] = system: Japanese patients with type 2 diabetes mellitus; conditions: 26 weeks
Human isolated islets [6] = assay: Nitrotyrosine concentration in islet lysates; conditions: 100 nM linagliptin, all diabetic conditions
Human isolated islets [7] = conditions: induced by H2O2 treatment
ob/ob mice [8] = assay: ob/ob mice, 14 days treatment: blood glucose AUC and blinded histological scoring of the liver; conditions: 3 mg/kg/day

inflammatory markers COX-2 and MIP in wounds (RNase protection assays) (ob/ob mice [3]; 3 mg/kg/day vs mock-treated ob/ob mice): no significant differences
Compound: CC#CCn1c(N2CCC[C@@H](N)C2)nc2c1c(=O)n(Cc1nc(C)c3ccccc3n1)c(=O)n2C [linagliptin, 1-[(4-methyl-quinazolin-2-yl)methyl]-3-methyl-7-(2-butyn-1-yl)-8-(3-(R)-amino-piperidin-1-yl)-xanthine]
mRNA expression of profibrotic factors (TGF-β1, T1MP-1 and collagen (Col3alpha1)) [1]: significantly inhibits
liver fat content (MRS detection) [2]: significantly reduced
wound healing (ob/ob mice [3]; ob/ob mice): improves wound healing
number of apoptotic infiltrating F4/80-positive macrophages (ob/ob mice [3]; wounds of ob/ob mice, 3 mg/kg/day): does not increase
difference in change in HbA1c from baseline between TCF7L2 rs7903146 genotypes TT and CC [4]: statistically significant difference
FPG, difference of adjusted mean change from baseline vs. VB ([5]; LI 5 mg): -6.9 mg/dL
proportion of patients whose HbA1c level lowered by ≧0.5% ([5]; LI 10 mg): 53.5%
nitrotyrosine production in islets (Human isolated islets [6]): no elevated nitrotyrosine production
apoptosis (Human isolated islets [7]): blocks apoptosis
blood glucose AUC reduction (ob/ob mice [8]): 25%
histological score (hepatic steatosis and inflammation) (ob/ob mice [8]; control 3±0.18): 2.2±0.13
